# According to the supplement of paper PMC4604168 (melanoma cell lines):
# The list shows a part of the results. Many values rest on one well or one pass, so single values are uncertain.
# Test system: RVH-421
# Assay: cell count relative to DMSO control; melanoma cells; higher = more viable cells
# Conditions: library dose: standard library concentration; 72 h
# 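Note: cells treated in 1,536-well plates, then fixed and DAPI-stained, with nuclei counted from automated high-throughput microscope images.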
row,Structure (SMILES),cell count [%]
1,"CCN(CC)CCNC(=O)c1c(C)[nH]c(/C=C2\C(=O)Nc3ccc(F)cc32)c1C [sunitinib] + Nc1ccn([C@@H]2O[C@H](CO)[C@@H](O)C2(F)F)c(=O)n1 [gemcitabine] (first compound 2 µM, partner dose 0.002 µM)",55.7
2,"C[C@]1(O)C[C@@H](c2nc(-c3ccc4ccc(-c5ccccc5)nc4c3)c3c(N)nccn32)C1 + O=C(O)c1ccc2c(c1)nc(Nc1cccc(Cl)c1)c1ccncc12 [CX4945] (first compound 2 µM, partner dose 2 µM)",62.2
3,"COc1cc([C@@H]2c3cc4c(cc3[C@@H](O[C@@H]3O[C@@H]5CO[C@@H](C)O[C@H]5[C@H](O)[C@H]3O)[C@H]3COC(=O)[C@H]23)OCO4)cc(OC)c1O [etoposide] + CS(=O)(=O)c1ccc(C(=O)Nc2ccc(Cl)c(-c3ccccn3)c2)c(Cl)c1 [vismodegib] (first compound 0.1 µM, partner dose 5 µM)",121
4,"Cn1cnc2c(F)c(Nc3ccc(Br)cc3Cl)c(C(=O)NOCCO)cc21 [selumetinib] + COC(=O)c1sccc1S(=O)(=O)Nc1ccc(Nc2ccccc2)cc1OC [GSK0660] (first compound 0.075 µM, partner dose 5 µM)",92.4
5,"CCN(CC)CCNC(=O)c1c(C)[nH]c(/C=C2\C(=O)Nc3ccc(F)cc32)c1C [sunitinib] + COc1cc(Nc2ncc(F)c(Nc3ccc4c(n3)NC(=O)C(C)(C)O4)n2)cc(OC)c1OC [Tamatinib] (first compound 2 µM, partner dose 2 µM)",119
6,"Cn1cnc2c(F)c(Nc3ccc(Br)cc3Cl)c(C(=O)NOCCO)cc21 [selumetinib] + CC(C)(C)c1cnc(CSc2cnc(NC(=O)C3CCNCC3)s2)o1 [SNS-032] (first compound 0.075 µM, partner dose 0.05 µM)",64.2
7,"C[C@]1(O)C[C@@H](c2nc(-c3ccc4ccc(-c5ccccc5)nc4c3)c3c(N)nccn32)C1 + CCN(CC)CCNC(=O)c1c(C)[nH]c(/C=C2\C(=O)Nc3ccc(F)cc32)c1C [sunitinib] (first compound 2 µM, partner dose 2 µM)",87.4
8,"COc1cc([C@@H]2c3cc4c(cc3[C@@H](O[C@@H]3O[C@@H]5CO[C@@H](C)O[C@H]5[C@H](O)[C@H]3O)[C@H]3COC(=O)[C@H]23)OCO4)cc(OC)c1O [etoposide] + O=C(Nc1cccc(Cl)c1)Nc1ncc(CCNc2ncnc3ccsc23)s1 [SNS314] (first compound 0.1 µM, partner dose 0.004 µM)",72
9,"CCN(CC)CCNC(=O)c1c(C)[nH]c(/C=C2\C(=O)Nc3ccc(F)cc32)c1C [sunitinib] + CCCS(=O)(=O)Nc1ccc(F)c(C(=O)c2c[nH]c3ncc(Cl)cc23)c1F [PLX4720] (first compound 2 µM, partner dose 0.4 µM)",71.4
10,"C[C@]1(O)C[C@@H](c2nc(-c3ccc4ccc(-c5ccccc5)nc4c3)c3c(N)nccn32)C1 + Nc1cccc2c1CN(C1CCC(=O)NC1=O)C2=O [lenalidomide] (first compound 2 µM, partner dose 5 µM)",92.5
11,"Cn1cnc2c(F)c(Nc3ccc(Br)cc3Cl)c(C(=O)NOCCO)cc21 [selumetinib] + CCc1ccc(CCOc2ccc(CC3SC(=O)NC3=O)cc2)nc1 [pioglitazone] (first compound 0.075 µM, partner dose 10 µM)",62.2
12,"CCN(CC)CCNC(=O)c1c(C)[nH]c(/C=C2\C(=O)Nc3ccc(F)cc32)c1C [sunitinib] + CCCCCCCCc1ccc(CCC(N)(CO)CO)cc1 [fingolimod] (first compound 2 µM, partner dose 10 µM)",10.3
13,"CCN(CC)CCNC(=O)c1c(C)[nH]c(/C=C2\C(=O)Nc3ccc(F)cc32)c1C [sunitinib] + NCC(=O)Nc1ccc(-n2nc(C(F)(F)F)cc2-c2ccc3c(ccc4ccccc43)c2)cc1 [OSU03012] (first compound 2 µM, partner dose 5 µM)",93.3
14,"Cn1cnc2c(F)c(Nc3ccc(Br)cc3Cl)c(C(=O)NOCCO)cc21 [selumetinib] + O=C(O)C(=O)Nc1sc2c(c1C(=O)O)CCNC2 [TCS401] (first compound 0.075 µM, partner dose 8.33333 µM)",85.8
